PubChem BioAssay AID1851 (National Center for Advancing Translational Sciences (NCATS), 2009)
In all, about 16,000 compounds went through this assay and about 5,700 (36%) were called active. Another 24% or so got no clear call; they are omitted. Calls come from the whole dose curve; as a rule, active = well fitted curve in the direction sought with a large enough effect; inconclusive = small, poorly fitted or top-dose-only effect, or effect the other way; inactive = no such curve, though single readings can be large or run the other way. A number of entries come with more than one value. Only these are listed. The source may hold further records. The records of an entry repeat one measurement in other runs, samples, wells, individuals or studies. Additions like (4×) stand for listed records that agree.

The molecules below were run against Cytochrome P450 1A2 (Homo sapiens) (UniProt P05177) (assay: Cytochrome panel assay with activity outcomes). Details: recombinant CYP, pro-luciferin dealkylation, luminescence; p450-cyp1a2.
UniProt P05177, sequence (P05177 whole entry, looked up): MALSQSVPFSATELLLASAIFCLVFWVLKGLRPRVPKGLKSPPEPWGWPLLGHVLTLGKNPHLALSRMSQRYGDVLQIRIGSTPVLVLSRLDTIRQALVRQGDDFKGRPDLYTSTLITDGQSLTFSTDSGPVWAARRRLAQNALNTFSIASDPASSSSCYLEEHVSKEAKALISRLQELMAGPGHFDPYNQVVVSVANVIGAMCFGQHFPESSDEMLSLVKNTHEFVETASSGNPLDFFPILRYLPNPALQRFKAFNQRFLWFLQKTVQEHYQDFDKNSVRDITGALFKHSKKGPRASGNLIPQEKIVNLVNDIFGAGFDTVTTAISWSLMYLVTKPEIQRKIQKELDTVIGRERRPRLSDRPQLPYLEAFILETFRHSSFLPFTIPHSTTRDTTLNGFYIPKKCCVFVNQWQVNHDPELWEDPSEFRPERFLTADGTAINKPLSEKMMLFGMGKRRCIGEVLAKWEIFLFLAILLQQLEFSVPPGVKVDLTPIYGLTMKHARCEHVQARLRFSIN

Compound | AC50
CC(C)NC[C@@H](O)COc1cccc2ccccc12 | active: 1.58 µM, 1.26 µM, 251 nM, 631 nM, 200 nM (2×), 158 nM [separate samples]
